Here are results for 65 compounds from PubChem BioAssay AID1347073 (National Center for Advancing Translational Sciences (NCATS), 2019).

The structures appear in SMILES notation. About 200 (0.44%) of roughly 45,000 compounds were called active. Not shown: some 7% with an inconclusive outcome. Calls come from the whole dose curve; as a rule, active = well fitted activation curve with a large enough effect; inconclusive = small, poorly fitted or top-dose-only effect; inactive = no such curve, though single readings can be large or run the other way. The list shows a part of the results.
Potency is the fitted concentration of half-maximal effect.

A short description of this assay: qHTS of TDP-43 Inhibitors: NCGC Sytravon Library Screen. For growth rescue (activation): 0% is about no effect. Note: nearly all actives have a fitted effect of over 55% in size. The note with it: yeast TDP-43 toxicity rescue, BacTiter-Glo growth, 24 h; series mostly up to 46.1 µM; growth rescue (activation): at the top concentration. In outline:
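TDP-43-expressing yeast, pregrown in raffinose, seeded at OD600 0.02 in galactose medium with compound for 24 hr at 30 deg C. Growth read by BacTiter-Glo luminescence, so rescue of toxicity appears as activation.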
On the technique in general: Quantitative high-throughput screening tests each substance at several concentrations.
Turning to `COc1cc(NC(=O)CSc2nc3ncnc(N)c3[nH]2)c(C(=O)O)cc1OC`, the “growth rescue (activation)” value is inactive: 10.5%.
`CC(Oc1ccc2oc3ccccc3c2c1)C(=O)NC12CC3CC(CC(C3)C1)C2` (stereo not given): the “growth rescue (activation)” value is inactive: -11.3%.
Still for that read-out and setting: the same measure for `Cc1ccc2c(c1)C1C[N+](C)(CC(=O)Nc3ccccc3Cl)CCC1N2C(=O)c1ccccc1Cl` (stereo not given): inactive: 22.3%.
For `NC(=S)N/N=C/c1ccc(-n2nncc2-c2ccc(Cl)cc2)cc1`, the “growth rescue (activation)” value is inactive: -26.1%.
With `Cc1sc(NC(=O)/C=C/C(=O)O)c(C(N)=O)c1-c1ccc(C(C)(C)C)cc1`, the “growth rescue (activation)” value was inactive: 32.8%.
For the compound `COc1ccc(OCC(=O)N/N=C/c2ccc(N(C)C)cc2)cc1`, the “growth rescue (activation)” value was inactive: 4.35%.
Consider `COc1cc(/C=C/C(=O)OCC(=O)NC(C)c2ccccc2)cc(OC)c1OC` (stereo not given), for which the “growth rescue (activation)” value was inactive: 7.19%.
Still for that read-out and setting: to `O=C(COC(=O)CC1CCCC1)Nc1ccc(Br)cc1F` belongs inactive: -24.7%; to `Cc1cccc(NC(=O)COC(=O)c2ccc3nc(C)c(C)nc3c2)c1`, inactive: 18.1%; to `CCN1CCN(C(=O)C(C)Sc2nc3nc(C)cc(C)n3n2)CC1` (stereo not given), inactive: -5.83%.
The same measure, in the same setting: the same measure for `O=C(NCCCN1CCOCC1)c1cn(-c2ccccc2)nc1-c1ccc(F)cc1`: inactive: 14.1%; for `O=C(c1ccccc1)n1nnc2ccccc21`: inactive: 28.7%; for `O=C(NCC1CCCO1)c1ccccc1NS(=O)(=O)c1cccs1` (stereo not given): inactive: -2.92%.
Same read-out and setting: to `COc1ccc(S(=O)(=O)Nc2cc(C(=O)NCCCN3CCOCC3)ccc2N2CCOCC2)cc1` belongs inactive: -6.92%; to `CC(/C=N/NC(=O)Cc1cccs1)=C\c1ccccc1`, inactive: 1.67%.
As to `CCCN1C(=O)COc2ccc(-c3n[nH]c(=O)c4ccccc34)cc21`, the “growth rescue (activation)” value was inactive: 15.9%.
The same measure, in the same setting: to `CC(O)CNc1nc2c(c(=O)n(Cc3ccc(Cl)cc3)c(=O)n2C)n1C` (stereo not given) belongs inactive: 11.6%.
Same read-out and setting: to `C[N+](C)(CCOc1ccccc1)Cc1ccccc1` (tested in a mixture with another compound) belongs inactive: 25.9%; to `Cc1ccccc1OCC(=O)OCC(=O)Nc1ccc(S(N)(=O)=O)cc1`, inactive: 11.4%; to `COc1ccc(C(=O)Nc2cc(C)c(NC(=O)c3ccccn3)cn2)cc1`, inactive: 6.04%.
For the compound `CCCc1ccc(-c2cc(NC(=O)CSc3nnc(N)s3)n(-c3ccccc3)n2)cc1`, the “growth rescue (activation)” value was inactive: 5.49%.
Still for that read-out and setting: the same measure for `COc1ccc(N=C2CC(C)(C)CC(=O)/C2=C(/O)c2ccccc2)cc1`: inactive: 27.9%; for `O=C(Nc1ccc(-n2cccn2)cc1)C1CCN(Cc2ccccn2)CC1`: inactive: -3.27%.
The same measure, in the same setting: the same measure for `CCOP(=O)(c1ccc(N(C)C)cc1)C(O)c1ccc(C)cc1` (stereo not given): inactive: 12.9%.
Still for that read-out and setting: to `COc1ccc(OC(F)(F)F)cc1CC1(C)C(=O)Nc2cccc(Cl)c21` (stereo not given) belongs inactive: -13.2%; to `CCc1nc2ccc(C(=O)Nc3cccc(NS(C)(=O)=O)c3)cn2c1N(CC)Cc1cccc(Br)c1`, inactive: 1.95%; to `C/C(=C\c1ccccc1)C(=O)Nc1nc2ccc([N+](=O)[O-])cc2s1`, inactive: 21.5%.
`COc1ccc(CNC(=O)CN(C(=O)CCC(=O)Nc2ccccn2)c2cccc(C)c2C)cc1`: the “growth rescue (activation)” value is inactive: -15.7%.
Take `CN(C)C(=O)c1ccc2c(c1[N+](=O)[O-])C(=O)c1ccccc1C2=O`: the Potency is active: 10 µM.
Take `CCOC(=O)Cn1c(O)c(N=NC(=O)OC)c2ccccc21`: the “growth rescue (activation)” value is inactive: 8.44%.
On the same count and under the same terms, to `CCC(CC)N1CCN(C(=O)c2cccc(Cl)c2)CC1` belongs inactive: -4.09%; to `C/C(CC(=O)Nc1ccc([N+](=O)[O-])cc1)=N/NC(=O)C1C2CCCCC21` (stereo not given), inactive: 25.5%.
The same measure, in the same setting: to `COc1ccc(CNC(=O)CSC(=S)N2CCCC2)cc1` belongs inactive: -3.37%.
The same measure, in the same setting: the same measure for `CCOC(=O)C1=C(C)NC(=S)NC1c1ccc(OCC(=O)N2CCCCC2)cc1` (stereo not given): inactive: -3.75%; for `CN(C)C(CNS(=O)(=O)c1cc([N+](=O)[O-])ccc1Cl)c1ccco1` (stereo not given): inactive: -4.74%.
On to `Cc1ccc(CN2CCN(Cc3ccncc3)CC2CCO)o1` (stereo not given), for which the “growth rescue (activation)” value was inactive: -11.9%.
`COc1ccc(-c2csc(NC(=O)CSc3nnc(Nc4ccccc4C)s3)n2)cc1`: the “growth rescue (activation)” value was inactive: 2.17%.
Still for that read-out and setting: to `CSc1nc2ccc(NC(=O)c3ccc(=O)[nH]c3)cc2s1` belongs inactive: -8.83%; to `O=C(O)c1ccc(-c2nc(-c3ccccc3)c(-c3cccs3)[nH]2)cc1`, inactive: 4.21%.
Same read-out and setting: to `CCOc1cc2c(cc1/C=C(/C#N)c1ccc(C(=O)O)cc1)OCO2` belongs inactive: 22.2%; to `CCN(CC)S(=O)(=O)c1ccc(N2CCCC2)c(NS(=O)(=O)c2ccc([N+](=O)[O-])cc2)c1`, inactive: 12.6%; to `Cc1ccc(C(=O)NCCNC(=O)c2ccccn2)cc1`, inactive: -0.352%.
With `COc1cccc(NC(=O)Cn2c(CCC(=O)O)ccc2-c2ccccc2)c1`, the “growth rescue (activation)” value was inactive: 7.97%.
Take `COc1ccccc1CC(Cc1nc2ccccc2[nH]1)c1nc2ccccc2[nH]1` (stereo not given): the “growth rescue (activation)” value was inactive: 3.89%.
Same read-out and setting: the same measure for `CN(C)c1ccc(C2(c3ccc(N(C)C)cc3)OC(=O)c3cc(N)ccc32)cc1`: inactive: 0.696%; for `CCOc1ccc(S(=O)(=O)NCCC(=O)OCC(=O)N2CC(=O)Nc3ccccc32)cc1`: inactive: 5.3%.
On the same count and under the same terms, the same measure for `Cc1ccc(CNc2ccc(N3C(=O)CCCC3=O)cc2[N+](=O)[O-])cc1`: inactive: 8.95%.
Turning to `O=C(NCc1cccs1)c1ccc2sc(C3=C[C@@H](O)[C@@H](O)[C@@H](CO)O3)nc2c1`, the “growth rescue (activation)” value is inactive: -10.4%.
The same measure, in the same setting: the same measure for `COc1cc([N+](=O)[O-])ccc1NC(=O)COC(=O)c1ccc(NC(N)=O)cc1`: inactive: 5.41%.
On the same count and under the same terms, the same measure for `O=C(Cc1ccccc1)Nc1ccc(S(=O)(=O)N2CCCC2)cc1`: inactive: 15.8%.
Same read-out and setting: to `O=c1[nH]snc1N1CCOCC1` belongs inactive: 12.8%; to `O=C(O)CCSc1nnc(SCC(=O)NC2CCS(=O)(=O)C2)s1` (stereo not given), inactive: 17.1%.
With `COc1cc(NC(=S)Nc2cccnc2)cc(OC)c1`, the “growth rescue (activation)” value was inactive: 11.3%.
Same read-out and setting: to `Cc1ccc(CSC2=Nc3ccccc3C3=NC(CC(=O)NC4CCCCC4)C(=O)N23)cc1` (stereo not given) belongs inactive: 7.28%.
Take `CCNC(=O)C1CCCN(C(=O)c2ccccc2OC(F)(F)F)CC1` (stereo not given): the “growth rescue (activation)” value is inactive: -7.81%.
Same read-out and setting: the same measure for `Nc1ccc(S(=O)(=O)Nc2nccc(/C=C/c3ccc([N+](=O)[O-])cc3)n2)cc1`: inactive: -6.41%; for `Cc1c(C(=O)N2CCCCC2)oc2ccccc12`: inactive: 15.9%; for `COc1ccccc1N1CCN(C(=O)c2cc(-c3ccc(F)cc3)on2)CC1`: inactive: 10.7%.
On the same count and under the same terms, the same measure for `CS(=O)(=O)c1ccccc1C(=O)N1CCN(Cc2ccccc2)CC1`: inactive: -16.2%.
The same measure, in the same setting: to `CCN(CC)C(=O)c1c(-c2ccccc2)oc2ccc(O)cc12` belongs inactive: 16.1%; to `CS(=O)(=O)N1CCN(c2ccc(C(=O)N3CCOCC3)cc2[N+](=O)[O-])CC1`, inactive: -0.173%.
As to `CSc1ncccc1C(=O)N1CCN(S(=O)(=O)c2cc(C)ccc2C)CC1`, the “growth rescue (activation)” value was inactive: 8.28%.
The same measure, in the same setting: to `COc1ccc(N2CCN(C(=O)[C@H](C)N3C(=O)C4CC=CCC4C3=O)CC2)cc1` (stereo not given in full) belongs inactive: 4.66%; to `COc1ccc(-c2ccc(CCC(=O)O)n2CC(=O)Nc2ccccc2C)cc1`, inactive: -3.12%.
The same measure, in the same setting: to `COc1cc(C=NNC(=O)c2ccc(NS(=O)(=O)c3cccs3)cc2)cc(Br)c1O` belongs inactive: 4.01%.
